About 200 (0.44%) of roughly 45,000 compounds were called active. Inconclusive results (about 7%) are left out. Calls follow the shape of the dose curve; as a rule, active = well fitted activation curve with a large enough effect; inconclusive = small, poorly fitted or top-dose-only effect; inactive = no such curve, though single readings can be large or run the other way. The list shows a part of the results.
experiment: qHTS of TDP-43 Inhibitors: NCGC Sytravon Library Screen; details: yeast TDP-43 toxicity rescue, BacTiter-Glo growth, 24 h; series mostly up to 46.1 µM; growth rescue (activation): at the top concentration; also: 0% is about no effect; nearly all actives have a fitted effect of over 55% in size
Procedure, shortened: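 TDP-43-expressing yeast, pregrown in raffinose, seeded at OD600 0.02 in galactose medium with compound for 24 hr at 30 deg C. Growth read by BacTiter-Glo luminescence, so rescue of toxicity appears as activation.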

| SMILES | growth rescue (activation) |
| --- | --- |
| O=C1N/C(=C/c2cccs2)C(=O)N1Cc1ccccc1F | inactive: -6.82% |
| O=C(CSc1ccccc1)Nc1nccs1 | inactive: 9.49% |
| COc1ccc(NC(=O)c2cc(-c3ccc(F)cc3OC(C)C)n[nH]2)cn1 | inactive: 23.1% |
| Cc1ccc(C(=O)OC(C(=O)Nc2ccc(Cl)cc2C(F)(F)F)c2ccccc2)cc1 (centres undefined) | inactive: 1.18% |
| O=C(CSc1nnc(COc2ccc(F)cc2)o1)N1CCCCC1 | inactive: 29.9% |
| Cn1c(N)c(C(=O)COC(=O)CNC(=O)c2ccc(Cl)cc2Cl)c(=O)n(C)c1=O | inactive: 6.49% |
| Cc1ccc(S(=O)(=O)CC(c2ccccc2)N2CCCCC2)cc1 (centres undefined) | inactive: 0.149% |
| O=C(CCCNS(=O)(=O)c1ccc(F)cc1)Nc1ccc(F)cc1 | inactive: 1.72% |
| Cc1[nH]c2ccc(F)cc2c1CCN1C(=O)OC(C)(C)C1(C)O (centres undefined) | inactive: 30% |
| CC1(C(=O)NS(=O)(=O)c2cccs2)CCN1C(=O)CC1CC1 (centres undefined) | inactive: 3.25% |
| Cc1cnc(CNC(=O)c2csc([C@@H]3C[C@H](O)[C@@H](CO)O3)n2)cn1 | inactive: 11.2% |
| CCCN1CCN(C(=O)c2cc(COc3ccc(F)cc3F)on2)CC1 | inactive: 21.2% |
| CCn1nnc(NC(=O)c2ccc(-c3ccccc3[N+](=O)[O-])o2)n1 | inactive: 16.2% |
| COCCNC(=S)N/N=C/c1ccc(OCc2ccc(C(=O)OC)cc2)cc1 | inactive: 19.3% |
| COc1cccc(CNC(=S)Nc2cc(C)cc(C)c2)c1 | inactive: 8.54% |
| C=CCOc1c(Cl)cc(CNn2cn[nH]c2=S)cc1OC | inactive: 11.6% |
| Cc1ccc(NC2CCCN(C(=O)CCN3CCCCO3)C2)cc1C (centres undefined) | inactive: 6.54% |
| O=C(N[C@@H](Cc1ccccc1)C(=O)O)c1cccs1 | inactive: 11% |
| CCOC(=O)c1c(-c2ccccc2)oc2ccc(OCc3ccc(C)cc3)cc12 | inactive: -4.89% |
| Cc1ccc(NC(=O)N[C@H](C(=O)O)C(C)C)c(C)c1 | inactive: 2.07% |
| CCc1ccccc1N1CC(C(=O)Nc2nccs2)CC1=O (centres undefined) | inactive: 4.23% |
| COc1ccc(CCNC(=O)Cc2cccs2)cc1 | inactive: 3.8% |
| CC(OC(=O)c1ccc(O)cc1)C(=O)Nc1ccc(Oc2ccccc2)cc1 (centres undefined) | inactive: -14.8% |
| CCN1CCN(C(=O)c2cc(S(=O)(=O)N3CCCCC3)ccc2Cl)CC1 | inactive: 11.5% |
| COc1ccccc1N1CCN(C(=O)CSc2nc(C)cc(=O)[nH]2)CC1 | inactive: 11.6% |
| CC(C)CN(C(=O)CN(C)CC(=O)Nc1ccccc1C#N)c1c(N)n(CC(C)C)c(=O)[nH]c1=O | inactive: -1.07% |
| CCOC(=O)C(C)Sc1nc2c(c(-c3cccs3)c1C#N)CCC2 (centres undefined) | inactive: -4.8% |

| SMILES | growth rescue (activation) |
| --- | --- |
| O=C(Nc1nnc([C@@H]2C[C@H](O)[C@@H](CO)O2)s1)NC(c1ccccc1)c1ccccc1 | inactive: 1.81% |
| CCCOc1ccc(-c2nc(SCc3ccccc3)[nH]c(=O)c2C#N)cc1OC | inactive: 8.04% |
| FC(F)(F)c1ccc(NCCc2ccccc2)nc1 | inactive: 10.3% |
| Cc1cc(=O)[nH]c(N/N=C/CCc2ccccc2)n1 | inactive: 9.49% |
| O=C(O)CN(Cc1ccco1)S(=O)(=O)c1ccc(F)cc1 | inactive: 4.56% |
| N/C(=N\OC(=O)COc1cc(Cl)c(Cl)cc1Cl)c1ccccn1 | inactive: 12.4% |
| O=c1[nH]c2ccccc2c2nc(-c3cccc(S(=O)(=O)N4CCCC4)c3)nn12 | inactive: 1.11% |
| COc1ccc(CCNC(=O)COC(=O)c2cccs2)cc1OC | inactive: 4.9% |
| CCN(CC)S(=O)(=O)c1ccc(C(=O)NCC2CCCCC2)cc1 | inactive: 1.83% |
| CCc1ccc(N(C(=O)CNC(=O)c2ccco2)C(C(=O)NCC2CCCO2)c2ccccc2)cc1 (centres undefined) | inactive: 0.518% |
| Cc1c(C)c2ccc(O[C@@H]3O[C@H](CO)[C@H](O)[C@H](O)[C@H]3O)c(C)c2oc1=O | inactive: -1.75% |
| O=C(O)CCCn1cc(NC(=O)COc2ccc(F)cc2)cn1 | inactive: -0.508% |
| CCN(CCO)C(=O)c1ccc2nc(Cc3ccc(OC)cc3)oc2c1 | inactive: 7.88% |
| O=C(CSc1nnnn1C1CC1)Nc1cc(S(=O)(=O)N2CCCC2)ccc1Cl | inactive: -2.38% |
| CSc1nc(C)cc(OCC(=O)N/N=C/c2ccccc2O)n1 | inactive: -12.8% |
| Cc1cc(C)nc(NC(=O)Cc2ccc([N+](=O)[O-])cc2)c1 | inactive: 14.8% |
| Cc1c(NC(=O)NC(=O)c2ccc(F)cc2)c(=O)n(-c2ccccc2)n1C | inactive: -7.88% |
| O=C(CNC(=O)c1ccncc1)N/N=C/c1cccc([N+](=O)[O-])c1 | inactive: 0.347% |
| O=C(CCCc1nc2ccccc2s1)NC1CCOC1=O (centres undefined) | inactive: -5.94% |
| COc1ccccc1NC(=O)Cc1noc(CSc2nnc(C(F)(F)F)n2C)n1 | inactive: 1.99% |
| CCOC(=O)C1=C(O)C(=O)N(c2ccc(S(N)(=O)=O)cc2)C1c1cccc([N+](=O)[O-])c1 (centres undefined) | inactive: -5.7% |
| CCCCC(=O)N(C)c1c(CC)nc2c(OCc3ccc(C(F)(F)F)cc3)cccn12 | inactive: 3.46% |
| O=C(CSc1nnc(NC(=O)C2CCC2)s1)Nc1ccccc1 | inactive: 10.4% |
| O=C(NN=C1CCCC1)c1sc2ccccc2c1Cl | inactive: 22.2% |
| COc1ccc(NC(=O)c2c(Cl)nc3ccccn23)cc1 | inactive: 19.1% |
| CCc1ccc2c(c1)c(N=NC1=NC(=O)CS1)c(O)n2C | inactive: -2.3% |
| CCS(=O)(=O)c1c(S(=O)(=O)CC)c2ccccn2c1C(N)=O | inactive: -2.32% |
